In PubChem BioAssay AID1508642 (National Center for Advancing Translational Sciences (NCATS), 2021):
Out of some 43,000 compounds screened, about 200 (0.47%) were called active. Not shown: some 12% with an inconclusive outcome. Calls follow the shape of the dose curve; as a rule, active = well fitted cell-killing curve with a large enough effect; inconclusive = small, poorly fitted or top-dose-only effect, or effect the other way; inactive = flat fitted curve, though single readings scatter. The list shows a part of the results.

Experiment: Cell viability qHTS assay in S16 Pmp22-F2sN cells; also: nearly all actives have a fitted effect of over 65% in size
Details: S16 Pmp22-F2sN Schwann cells (luciferase reporters placed in the Pmp22 gene) viability, CellTiter-Glo, 24 h; series mostly up to 57.5 µM; activity change, negative = cytotoxicity: at the top concentration
Procedure, shortened: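 Rat S16 Schwann reporter line, 24 h treatment with library compounds delivered at 23 nL per well. Cell viability by CellTiter-Glo luminescence.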
% is scaled to controls: 0 for no effect and ±100 for the full control effect.

| Compound | activity change, negative = cytotoxicity |
| --- | --- |
| Cc1cc(C)cc(-n2ccnc2SCC(=O)Nc2nnc(C)s2)c1 | inactive: -10.2% |
| O=C(Nc1nc2ccc(S(=O)(=O)N3CCCC3)cc2s1)c1cccc(F)c1 | inactive: -20.7% |
| Cc1ccc(-c2nc(C)c(CCNC(=O)c3ccco3)s2)cc1 | inactive: 0.0584% |
| CCc1ccc(CNC(=O)CN2C(=O)c3cccnc3Oc3ccc(Cl)cc32)cc1 | inactive: -2.7% |
| O=C(CSc1nc2ccccc2nc1Cc1ccc(Cl)cc1)N1CCc2ccccc21 | inactive: -3.33% |
| CCN(c1cccc(C)c1)S(=O)(=O)c1nnc(NC(=O)C2CCCCC2)s1 | inactive: 9.23% |
| O=C(CSC1=Nc2ccccc2C2=NC(CC(=O)NC3CCCCC3)C(=O)N12)Nc1ccc(F)cc1 (stereo not given) | inactive: -8.73% |
| CCOc1ccc(NC(=O)CSc2ncc3c(n2)-c2ccc(Cl)cc2N(Cc2ccccc2)S3(=O)=O)cc1 | inactive: 2.84% |
| COc1ccc(-c2nc3sc(CCNC(=O)c4cc(OC)c(OC)c(OC)c4)c(C)n3n2)cc1 | inactive: 2.02% |
| COC(=O)c1nc2n(n1)C(c1cccc(Cl)c1)C(C(=O)Nc1ccccc1OC)=C(C)N2 (stereo not given) | inactive: -4.45% |
| Cc1cccc(C)c1NC(=O)C(NS(=O)(=O)c1ccc2c(c1)CCC(=O)N2)c1ccccc1 (stereo not given) | inactive: -1.3% |
| Cc1c2cnn(-c3ccccc3)c(=O)c2c(C)n1CCCC(=O)Nc1cc(F)ccc1F | inactive: -11.1% |
| CCOc1ccc(C2c3[nH]c4ccccc4c3CCN2C(=O)CCc2ccccc2)cc1 (stereo not given) | inactive: -2.86% |
| COc1ccc(C)cc1NC(=O)c1oc2ccc(S(=O)(=O)N3CCCCC3)cc2c1C | inactive: -1.57% |
| Cc1ccc(C)c(N2CCN(S(=O)(=O)c3cc(Br)cc4c3N(C(=O)C3CC3)CC4)CC2)c1 | inactive: -3.37% |
| COc1ccc(-n2nc(C(=O)Nc3ccccc3OC)c3c4ccccc4n(C)c3c2=O)cc1Cl | inactive: 12.7% |
| Cc1ccc(CSc2nc(-c3cccs3)ccc2C#N)cc1 | inactive: -0.142% |
| COc1cccc(-c2nn(C)c3sc(C(=O)NCCc4ccc(Cl)cc4)cc23)c1 | inactive: -2.02% |
| Cc1ccc(C(=O)n2nc(C)c(S(=O)(=O)N3CCOCC3)c2C)cc1 | inactive: -2.01% |
| CCOc1ccc(NC(=O)NCCCN2CCN(c3ccc(F)cc3)CC2)cc1 | inactive: -6.16% |
| Cc1cccc(N2CCN(c3cc(C)nc4c(-c5ccc(Cl)cc5)c(C)nn34)CC2C)c1 (stereo not given) | inactive: 10.6% |
| FC(F)(F)c1cc(-c2ccccc2)nc2cc(-c3ccc(Br)cc3)nn12 | inactive: 7.19% |
| COc1ccc(-c2cn3nc(N4CCCC(C(=O)Nc5ccc(C)c(C)c5)C4)sc3n2)cc1 (stereo not given) | inactive: 29.5% |
| Cc1ccc(-n2nnnc2CNC(=O)c2ccccc2S(C)(=O)=O)cc1C | inactive: -1.16% |

| Compound | activity change, negative = cytotoxicity |
| --- | --- |
| CCCn1cc(S(=O)(=O)c2cc(C)ccc2C)c(=O)c2cc(F)c(N3CCOCC3)cc21 | inactive: -7.17% |
| CCc1ccc2occ(CC(=O)Nc3c(C(=O)Nc4ccc(C)cc4)oc4ccccc34)c2c1 | inactive: 0.142% |
| COC(=O)c1c(SCC(=O)Nc2cc(C)cc(C)c2)[nH]c2ccccc2c1=O | inactive: -11.5% |
| O=C(CCC(=O)OCC(=O)c1ccc(Cl)cc1)Nc1ccc(Oc2ccccc2)cc1 | inactive: -0.735% |
| COc1ccc(N2CCN(C(CNC(=O)C(=O)NCCCN(C)C)c3cccnc3)CC2)cc1 (stereo not given) | inactive: 3.49% |
| CCC(=O)N1c2nc(-c3ccco3)nn2C2(CCCCC2)[C@@H]2CCCC[C@@H]21 | inactive: 2.87% |
| Cc1ccc(CSc2nc3cccnc3n2Cc2ccc(C(=O)NCCc3ccccc3)cc2)cc1 | inactive: -2.54% |
| CCS(=O)(=O)N1CCc2cc(C(=O)Nc3cccc(Cl)c3C)ccc21 | inactive: 0.482% |
| Cc1nc2c(-c3ccccc3)c(C)nn2c(C)c1CCC(=O)NCc1ccccc1Cl | inactive: 8.72% |
| O=C(Nc1cc2c(cc1C(=O)c1ccccc1Cl)OCCO2)c1ccc(Br)cc1 | inactive: -0.831% |
| CCOC(=O)C1=C(CS(=O)(=O)c2ccc(C)cc2)NC(=O)NC1c1ccc(C(C)C)cc1 (stereo not given) | inactive: -27% |
| CN(C(=O)c1ccc2c(c1)N(Cc1cccc(Cl)c1)C(=O)c1ccccc1S2=O)C1CCCCC1 (stereo not given) | inactive: -23% |
| COc1ccc(NC(=O)CCS(=O)(=O)c2cccc3nonc23)cc1Cl | inactive: 7.31% |
| Cc1ccc(CSCc2ccc(C(=O)NCCc3ccc(Cl)cc3)o2)cc1 | inactive: -16.6% |
| Cc1cc(C)cc(N2C(=O)CSC23C(=O)N(CC(=O)NCCc2ccccc2)c2ccccc23)c1 (stereo not given) | inactive: 0.95% |
| O=C(CSC1=Nc2ccccc2N=C(c2ccc(F)cc2)C1)NCc1ccc(F)cc1 | inactive: 16.4% |
| Cc1ccc(C)c(CN2C(=O)CSc3ccc(C(=O)NCc4ccc(F)cc4)cc32)c1 | inactive: 1.07% |
| COc1ccccc1NCc1cccn1-c1nnc(N2CCOCC2)s1 | inactive: -1.11% |
| Cc1oc2ncn(C)c(=O)c2c1C(=O)NC(C)c1ccccc1 (stereo not given) | inactive: -9.14% |
| Cc1nc(C)c(-c2ccc(SCC(=O)Nc3ccc(C)c(F)c3)nn2)s1 | inactive: -1.43% |
| COc1ccc(CNC(=O)c2c(O)nc3cc(C)ccn3c2=O)cc1 | inactive: 2.79% |
| CCc1ccc2ncc3c(-c4ccc(F)cc4)nn(CC(=O)NCc4ccccc4)c3c2c1 | inactive: 4.47% |
| CC(C)CC(C(=O)NCc1ccc(F)cc1)N1Cc2ccccc2C1=O (stereo not given) | inactive: -0.604% |
| Cc1ccc(C(C)C)c(OCC(=O)Nc2ccc(C(=O)OC3CCCCC3)cc2)c1 | inactive: 4.24% |

| Compound | activity change, negative = cytotoxicity |
| --- | --- |
| CCOc1ccc(-c2nc(SCC(=O)Nc3ccc(C)c(C)c3)n3[nH]c(=O)cc3n2)cc1 | inactive: -1.8% |
| Cc1cccc(NC(=O)CSc2nc(-c3ccccc3)cn2-c2ccccc2)c1C | inactive: 2.5% |
| Cc1ccc(C)c(-n2c(CCC(=O)O)ccc2-c2ccc(Cl)cc2)c1 | inactive: 2.17% |
| COc1ccc(Nc2ncc(C(=O)N3CCN(c4cccc(Cl)c4)CC3)c3ccccc23)cc1 | inactive: -16% |
| COc1cccc(CNC(=O)Cc2ccc(NC(=O)N3CCCCc4ccccc43)cc2)c1OC | inactive: -18.3% |
| CCc1nnc(SCc2nc(-c3ccc(OC)c(OC)c3)oc2C)c2cc3sc(C)cc3n12 | inactive: 8.43% |
| Cc1ccc(/C=C/c2onc(C)c2S(=O)(=O)N2CCC(C(=O)NCc3ccc(C)o3)CC2)cc1 | inactive: 7% |
| Cc1ccc2c(=O)cc(C(=O)Nc3cccc(Cl)c3C)oc2c1C | inactive: -1.6% |
| Cc1cc(Nc2cccc(C)c2C)n2cnnc2n1 | inactive: 12.4% |
| Cc1ccc(C(=O)CC2(O)C(=O)N(CCc3ccccc3)c3ccc(Cl)cc32)cc1 (stereo not given) | inactive: 18.5% |
| Cn1c(=O)c2c(-c3ccccc3Cl)n(-c3cc(Cl)ccc3O)cc2n(C)c1=O | inactive: -14.1% |
| COc1ccc(OCCCCn2c(-c3ccc(Cl)cc3)nc3ccccc3c2=O)cc1 | inactive: 7.05% |
| CCCCCOC(=O)CSc1ncnc2c1sc1nc(N3CCOCC3)c3c(c12)CCCC3 | inactive: -4.94% |
| Cc1oc2ncn(CC(C)C)c(=O)c2c1C(=O)NCCCN1CCCCC1 | inactive: 10.9% |
| COc1cccc(NC(=O)CSc2ncc(S(=O)(=O)c3ccc(C)c(C)c3)c(=O)[nH]2)c1 | inactive: 18.7% |
| O=C(COc1ccc(F)cc1)Nc1ccc2nc(SCC(=O)N3CCc4ccccc43)sc2c1 | inactive: 12.5% |
| Cc1cc(C)c(NC(=O)c2cc3sc(Cl)cc3n2C)c(C)c1 | inactive: -0.729% |
| COc1ccccc1CNC(=O)c1ccc(N2CCCC2)c(NC(=O)NCCC(C)C)c1 | inactive: 6.06% |
| Cc1ccc(C)c(CN2C(=O)c3ccccc3S(=O)(=O)c3ccc(C(=O)N4CCCCCC4)cc32)c1 | inactive: -8.06% |
| O=C(NCC(c1ccco1)S(=O)(=O)c1cccs1)c1ccc(F)cc1 (stereo not given) | inactive: 6.28% |
| CCOC(=O)c1ccc2oc(=O)n(Cc3ccccc3)c2c1 | inactive: -2.29% |
| CCc1c(-c2ccccc2)nc2ccccc2c1C(=O)NCCc1ccccc1 | inactive: 18.1% |
| Cc1csc2nc(COc3ccccc3NC(=O)c3ccco3)cc(=O)n12 | inactive: 4.8% |
| CSc1cccc(NC(=O)Cn2c3ncccc3c(=O)n2-c2ccc(C)cc2)c1 | inactive: -8.71% |

| Compound | activity change, negative = cytotoxicity |
| --- | --- |
| CC(=O)c1ccc(N2CCN(S(=O)(=O)c3ccc(-c4cc(C(F)(F)F)on4)s3)CC2)cc1 | inactive: -0.227% |
| COc1ccc(NC(=O)c2oc3ccccc3c2NC(=O)c2cc3ccccc3o2)cc1 | inactive: -3.61% |
| Cc1ccccc1S(=O)(=O)Cc1ccc(C(=O)NC2CCCCC2)o1 | inactive: 9.51% |
| CCOc1ccc(NS(=O)(=O)c2ccc3[nH]cc(C(=O)N(C)Cc4ccccc4)c(=O)c3c2)cc1 | inactive: 4.85% |
| COc1ccc2c(c1)CC(NC(=O)Nc1c(C)cc(C)cc1C)CO2 (stereo not given) | inactive: 20% |
| CC(=O)N1CCc2c(sc3c2c(=O)n(-c2ccccc2)c(=O)n3CC(=O)Nc2ccccc2C)C1 | inactive: -0.414% |
| COc1ccc(C)cc1S(=O)(=O)N1CCN(c2cccc(Cl)c2)CC1 | inactive: 0.111% |
| Cc1cccc(-n2c3nc(=O)[nH]c(=O)c-3cc3c(Cl)cccc32)c1C | inactive: -9.5% |
| CCOc1cccc2cc(-c3nc4ccc(C(=O)O)cc4[nH]3)c(=O)oc12 | inactive: 5.98% |
| CCOc1ccc(NC(=O)CSc2nnc3scc(-c4ccc(Cl)cc4)n23)cc1 | inactive: -2.27% |
| Cc1ccc(NS(=O)(=O)c2ccc3c(c2)NC(=O)CCS3)cc1C | inactive: -6.69% |
| Cc1ccccc1-n1c(/C=C/c2c(C)n(C)c3ccccc23)nc2ccccc2c1=O | inactive: 0.741% |
| CC(C)(C)OC(=O)N1CCC(c2c(C(=O)N3CCN(c4ncccn4)CC3)cnn2-c2ccccc2)CC1 | inactive: -3.34% |
| CCOC(=O)CNC(=O)N1CCc2cc(S(=O)(=O)N3CCC(C)CC3)ccc21 | inactive: 25.9% |
| CCOC(=O)c1ccc(N2C(=O)c3n[nH]c(C)c3C2c2ccc(C(C)(C)C)cc2)cc1 (stereo not given) | inactive: 5.1% |
| CNC(=O)C1CCC(Cn2c(=O)[nH]c3ccsc3c2=O)CC1 (stereo not given) | inactive: -1.27% |
| CCOC(=O)c1ccc(NC(=O)COCc2cc(-c3ccc4c(c3)OCO4)on2)cc1 | inactive: 14.5% |
| CCOC(=O)c1cccc(NC(=O)c2cc(CN3CCOCC3)on2)c1 | inactive: 3.27% |
| CSc1ccc(CNc2ncc(-c3ccccc3)n2C)cc1 | inactive: -0.132% |
| CCC(O)c1cc2c(cc1NC(=O)c1cccc(Br)c1)OCCO2 (stereo not given) | inactive: 24.9% |
| CCCSc1ncc(Cl)c(C(=O)N(Cc2ccc(N(C)C)cc2)C2CCS(=O)(=O)C2)n1 (stereo not given) | inactive: -4.31% |
| COc1ccc(NC(=O)Cn2cnc3sc(C)c(S(=O)(=O)N4CCN(C)CC4)c3c2=O)cc1Cl | inactive: 0.491% |
| Cc1nc2ccccc2n1CCc1nc2c3ccccc3nc(SCC(=O)Nc3ccc(Br)cc3F)n2n1 | inactive: 13.1% |
